Measured values as given in the supplement of paper PMC4967469.
The IC50 comes from the fitted curve, where viability falls to half of the control; fits outside the tested doses are given as limits. The AUC spans the tested range (256-fold, ending at the top dose) of the same fit; it is 1 without any effect and falls as sensitivity rises. For some assays here: Any top dose called inferred was derived from the fitted curves, not read from the paper. For some assays here: Drugs with an entry number were screened twice under separate entries, and the two screens often disagree.

Assays:
Test in all cases: Viability of human cancer cell lines after 72 h of drug (GDSC screen)
[1] = compound: C/C=C(/C)C(=O)O[C@H]1C(C)=C2[C@H]([C@@H]1OC(=O)CCCCCCC)[C@@](C)(OC(C)=O)C[C@H](OC(=O)CCC)[C@@]1(O)[C@H]2OC(=O)[C@@]1(C)O [Thapsigargin]; conditions: top dose 0.512 µM; top dose inferred
Description: (§1)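 Human cancer cell lines in 384-well plates, medium with 10% serum, drug for 72 h over a 256-fold dose range (nine 2-fold or five 4-fold steps up to the top dose). Adherent lines were fixed and stained with the nucleic acid dye Syto60, suspension lines read with resazurin; signal relative to control wells, capped at 0 and 100%. One two-parameter sigmoid per drug and line, fitted in a mixed model over all curves with the slope shared within a line.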

[2] = compound: C=CC(=O)Nc1cc(-n2c(=O)ccc3cnc4ccc(-c5cn[nH]c5)cc4c32)ccc1C [QL-X-138]; conditions: top dose 10.24 µM; top dose inferred
Description: as §1

[3] = compound: CCn1c(-c2nonc2N)nc2cnc(Oc3cccc(NC(=O)c4ccc(OCCN5CCOCC5)cc4)c3)cc21 [GSK269962A]; conditions: top dose inferred
Description: as §1

[4] = compound: COc1cc(N2CCC(O)CC2)ccc1Nc1cc(Nc2ccccc2S(=O)(=O)C(C)C)c2cc[nH]c2n1 [MPS-1-IN-1]; conditions: top dose 20 µM; top dose inferred
Description: as §1

[5] = compound: COc1cc(O)c2c(c1)/C=C/C[C@H](O)[C@H](O)C(=O)/C=C\C[C@H](C)OC2=O [(5Z)-7-Oxozeaenol]; conditions: top dose 10 µM; top dose inferred
Description: as §1

[6] = compound: COc1cc2ncnc(-n3nc(-c4ccccn4)nc3N)c2cc1OC [CP466722]; conditions: top dose 16 µM; top dose inferred
Description: as §1

[7] = compound: COc1nc(C)cnc1NS(=O)(=O)c1cccnc1-c1ccc(-c2nnco2)cc1 [Zibotentan]; conditions: top dose 20 µM; top dose inferred
Description: as §1

[8] = compound: C[C@]1(c2nc3c(C(N)=O)cccc3[nH]2)CCCN1 [ABT-888]; conditions: top dose 5 µM; top dose inferred
Description: as §1

[9] = compound: Cc1ccc(F)c(NC(=O)Nc2ccc(-c3cccc4[nH]nc(N)c34)cc2)c1 [ABT-869]; conditions: top dose 1.024 µM; top dose inferred
Description: as §1

[10] = compound: Cc1cnc(-c2cnc(NCCNc3ccc(C#N)cn3)nc2-c2ccc(Cl)cc2Cl)[nH]1 [CHIR-99021]
Description: as §1

[11] = compound: O=c1cc(-c2cccc3c2Sc2ccccc2S3)oc(N2CCOCC2)c1 [KU-55933]; conditions: top dose 10 µM
Description: as §1

[12] = top dose 5 µM, screen: GDSC drug entry 1192
[13] = top dose 2.56 µM, screen: GDSC drug entry 154
[14] = top dose 10 µM, screen: GDSC drug entry 1241, top dose inferred
[15] = top dose 2.5 µM, screen: GDSC drug entry 127

Cell Line	AUC [1]	IC50 [1]	AUC [2]	IC50 [2]	AUC [3, 12]	IC50 [3, 12]	AUC [4]	IC50 [4]	AUC [5]	IC50 [5]	AUC [6]	IC50 [6]	AUC [7]	IC50 [7]	AUC [8]	IC50 [8]	AUC [9]	IC50 [9]	AUC [10, 13]	IC50 [10, 13]	AUC [10, 14]	IC50 [10, 14]	AUC [11]	IC50 [11]	AUC [3, 15]	IC50 [3, 15]
A431 (skin, adherent)	0.226	0.0053 µM	0.738	2.96 µM	0.987	> 5 µM	0.84	13 µM	0.7	2.22 µM	0.754	5.19 µM	0.987	> 20 µM	0.987	> 5 µM	0.982	> 1.02 µM	0.988	> 2.56 µM	0.984	> 10 µM	0.971	> 10 µM		
AsPC-1 (pancreas, adherent)	0.779	0.391 µM	0.869	> 10.2 µM	0.893	> 5 µM	0.972	> 20 µM	0.607	1.51 µM	0.919	> 16 µM	0.961	> 20 µM	0.968	> 5 µM	0.97	> 1.02 µM	0.964	> 2.56 µM	0.926	> 10 µM	0.938	> 10 µM		
BFTC-905 (bladder, adherent)	0.103	0.00214 µM	0.685	1.94 µM	0.987	> 5 µM	0.877	15.3 µM	0.527	0.73 µM	0.869	11.4 µM	0.99	> 20 µM	0.99	> 5 µM	0.99	> 1.02 µM	0.98	> 2.56 µM	0.969	> 10 µM	0.93	> 10 µM		
BICR22 (head and neck, adherent)	0.455	0.0236 µM	0.906	> 10.2 µM	0.927	> 5 µM	0.964	> 20 µM	0.6	1.23 µM	0.977	> 16 µM	0.982	> 20 µM	0.953	> 5 µM	0.98	> 1.02 µM	0.979	> 2.56 µM	0.96	> 10 µM	0.956	> 10 µM		
BICR78 (head and neck, adherent)	0.596	0.0612 µM	0.837	8.43 µM	0.917	> 5 µM	0.97	> 20 µM	0.557	0.915 µM	0.923	> 16 µM	0.983	> 20 µM	0.955	> 5 µM	0.982	> 1.02 µM	0.983	> 2.56 µM	0.946	> 10 µM	0.914	> 10 µM		
BT-20 (breast, adherent)	0.722	0.161 µM	0.738	3.68 µM	0.981	> 5 µM	0.972	> 20 µM	0.72	3.1 µM	0.853	> 16 µM	0.983	> 20 µM	0.973	> 5 µM	0.978	> 1.02 µM	0.982	> 2.56 µM	0.963	> 10 µM	0.983	> 10 µM		
BxPC-3 (pancreas, adherent)	0.288	0.00744 µM	0.886	> 10.2 µM	0.935	> 5 µM	0.871	> 20 µM	0.763	4.01 µM	0.839	12.9 µM	0.981	> 20 µM	0.983	> 5 µM	0.974	> 1.02 µM	0.86	> 2.56 µM	0.904	> 10 µM	0.955	> 10 µM		
C-33-A (cervix, adherent)	0.296	0.00851 µM	0.586	1.1 µM	0.571	0.49 µM	0.886	> 20 µM	0.533	0.771 µM	0.705	3.79 µM	0.986	> 20 µM	0.982	> 5 µM	0.986	> 1.02 µM	0.96	> 2.56 µM	0.985	> 10 µM	0.974	> 10 µM		
CAL-33 (head and neck, adherent)	0.499	0.0318 µM	0.674	1.95 µM	0.827	3.05 µM	0.916	> 20 µM	0.762	3.57 µM	0.838	10.8 µM	0.986	> 20 µM	0.973	> 5 µM	0.986	> 1.02 µM	0.972	> 2.56 µM	0.945	> 10 µM	0.869	9.28 µM		
CAL-51 (breast, adherent)	0.16	0.00359 µM	0.903	> 10.2 µM	0.858	3.26 µM	0.991	> 20 µM	0.535	0.769 µM	0.907	> 16 µM	0.991	> 20 µM	0.984	> 5 µM	0.991	> 1.02 µM	0.99	> 2.56 µM	0.962	> 10 µM	0.933	> 10 µM		
COLO-205 (large intestine, suspension)	0.192	0.00394 µM	0.799	4.83 µM	0.94	> 5 µM	0.803	9.72 µM	0.809	5.13 µM	0.787	6.84 µM	0.984	> 20 µM	0.973	> 5 µM	0.984	> 1.02 µM	0.939	> 2.56 µM	0.985	> 10 µM	0.981	> 10 µM		
COLO-678 (large intestine, semi-adherent)	0.761	0.233 µM	0.884	> 10.2 µM	0.983	> 5 µM	0.98	> 20 µM	0.733	3.58 µM	0.981	> 16 µM	0.982	> 20 µM	0.98	> 5 µM	0.98	> 1.02 µM	0.985	> 2.56 µM	0.963	> 10 µM	0.984	> 10 µM		
Ca-Ski (cervix, adherent)	0.449	0.0228 µM	0.44	0.429 µM	0.698	1.21 µM	0.861	> 20 µM	0.693	2.34 µM	0.746	5.6 µM	0.973	> 20 µM	0.97	> 5 µM	0.917	> 1.02 µM	0.981	> 2.56 µM	0.922	> 10 µM	0.958	> 10 µM		
D-392MG (glioma, adherent)	0.817	0.431 µM	0.667	2.23 µM	0.948	> 5 µM	0.951	> 20 µM	0.556	0.937 µM	0.814	13 µM	0.976	> 20 µM	0.965	> 5 µM	0.933	> 1.02 µM	0.868	> 2.56 µM	0.936	> 10 µM	0.979	> 10 µM	0.702	0.719 µM
DU-145 (prostate, adherent)	0.343	0.0111 µM	0.859	10.2 µM	0.819	3.28 µM	0.958	> 20 µM	0.718	2.81 µM	0.95	> 16 µM	0.984	> 20 µM	0.847	4.35 µM	0.983	> 1.02 µM	0.972	> 2.56 µM	0.976	> 10 µM	0.757	3.83 µM		
EFO-21 (ovary, adherent)	0.444	0.021 µM	0.865	> 10.2 µM	0.94	> 5 µM	0.933	> 20 µM	0.813	8.65 µM	0.86	> 16 µM	0.976	> 20 µM	0.98	> 5 µM	0.952	> 1.02 µM	0.978	> 2.56 µM	0.944	> 10 µM	0.976	> 10 µM		
G-402 (soft tissue, adherent)	0.257	0.00499 µM	0.718	3.32 µM	0.798	3.33 µM	0.897	> 20 µM	0.693	2.63 µM	0.763	7.63 µM	0.976	> 20 µM	0.972	> 5 µM	0.801	0.703 µM	0.969	> 2.56 µM	0.937	> 10 µM	0.964	> 10 µM		
H4 (glioma, adherent)	0.179	0.00352 µM	0.869	9.21 µM	0.801	2.41 µM	0.927	> 20 µM	0.689	2.1 µM	0.896	> 16 µM	0.982	> 20 µM	0.947	> 5 µM	0.986	> 1.02 µM	0.963	> 2.56 µM	0.895	> 10 µM	0.986	> 10 µM		
HARA (lung squamous cell carcinoma, adherent)	0.496	0.0312 µM	0.674	2.14 µM	0.849	4.76 µM	0.868	> 20 µM	0.846	9.21 µM	0.769	7.02 µM	0.976	> 20 µM	0.926	> 5 µM	0.936	> 1.02 µM	0.977	> 2.56 µM	0.973	> 10 µM	0.947	> 10 µM		
HCC-44 (lung adenocarcinoma, adherent)	0.045	< 0.002 µM	0.835	6.51 µM	0.587	0.537 µM	0.859	15.9 µM	0.678	1.94 µM	0.782	6.5 µM	0.924	> 20 µM	0.986	> 5 µM	0.984	> 1.02 µM	0.986	> 2.56 µM	0.933	> 10 µM	0.944	> 10 µM		
HCC-827 (lung adenocarcinoma, adherent)	0.87	> 0.512 µM	0.76	4.13 µM	0.927	> 5 µM	0.97	> 20 µM	0.822	7.06 µM	0.915	> 16 µM	0.982	> 20 µM	0.974	> 5 µM	0.979	> 1.02 µM	0.984	> 2.56 µM	0.934	> 10 µM	0.978	> 10 µM		
HCT-15 (large intestine, adherent)	0.704	0.125 µM	0.899	> 10.2 µM	0.96	> 5 µM	0.865	19.4 µM	0.871	> 10 µM	0.767	6.29 µM	0.962	> 20 µM	0.985	> 5 µM	0.978	> 1.02 µM	0.974	> 2.56 µM	0.985	> 10 µM	0.965	> 10 µM		
